Experimental data taken from article PMC4215230, “Incorporation of Pentraxin 3 into Hyaluronan Matrices Is Tightly Regulated and Promotes Matrix Cross-linking” (The Journal of Biological Chemistry, 2014).

Molecular target: T1, Biotinylated PTX3 (human, UniProt P26022 18-381, NHS-PEG4-biotin on primary amines, on average 2 mol of biotin/mol of PTX3 protomer)
T1 construct: pentraxin 3 (PTX3), human, recombinant, biotinylated through primary amines; Immobilised on a streptavidin monolayer by its biotins, in a variety of orientations; also called b-PTX3; source: Chinese hamster ovary 3.5 cell line, purified, then modified with EZ-Link NHS-PEG4-Biotin
Experiment: spectroscopic ellipsometry; b-PTX3 immobilised on a streptavidin monolayer at a monomer surface density of 4.8 pmol/cm^2; Link_TSG6 or rhTSG-6 added at identical molar bulk concentrations, then buffer rinse; HEPES buffer pH 7.4; no HA
Conditions: both partners purified

T1 sequence (P26022 18-381): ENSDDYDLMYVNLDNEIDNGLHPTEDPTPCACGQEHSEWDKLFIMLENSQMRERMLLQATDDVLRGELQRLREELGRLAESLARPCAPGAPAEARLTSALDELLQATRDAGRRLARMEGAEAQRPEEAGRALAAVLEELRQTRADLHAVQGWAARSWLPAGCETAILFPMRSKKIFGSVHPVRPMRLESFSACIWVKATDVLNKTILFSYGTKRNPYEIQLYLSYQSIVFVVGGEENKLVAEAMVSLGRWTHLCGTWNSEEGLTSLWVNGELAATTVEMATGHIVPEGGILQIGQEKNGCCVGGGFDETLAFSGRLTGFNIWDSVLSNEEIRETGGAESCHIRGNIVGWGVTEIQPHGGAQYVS

stoichiometry N: 4 TSG-6 binding sites per PTX3 octamer
B1: Wild type human TSG-6 Link module (Link_TSG6) (domain or fragment)
chain: not shown
notes: TSG-6 (secreted product of tumor necrosis factor-stimulated gene-6), human, Link module, 10.9 kDa; source: Escherichia coli, as described previously
